Assay results as given in publication PMC4336329 (PLoS ONE, 2015).
Among all 310,000 compounds or so, about 14,000 (4.5%) showed an effect of 50% or more. Effects have a minus sign here. The list shows a part of the results. Where a SMILES comes first, the peptide text is derived from it. The star is where a group is joined. Cbz = O=C(OCc1ccccc1)*

Each molecule was assayed against human ether-à-go-go-related gene (hERG) potassium channel (human, UniProt Q12809) (assay: primary screen, population patch clamp on CHO cells stably expressing hERG).
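Note: peak tail current of the secondary pulse compared with the same well before compound.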

Chain of human ether-à-go-go-related gene (hERG) potassium channel (Q12809 whole entry, looked up): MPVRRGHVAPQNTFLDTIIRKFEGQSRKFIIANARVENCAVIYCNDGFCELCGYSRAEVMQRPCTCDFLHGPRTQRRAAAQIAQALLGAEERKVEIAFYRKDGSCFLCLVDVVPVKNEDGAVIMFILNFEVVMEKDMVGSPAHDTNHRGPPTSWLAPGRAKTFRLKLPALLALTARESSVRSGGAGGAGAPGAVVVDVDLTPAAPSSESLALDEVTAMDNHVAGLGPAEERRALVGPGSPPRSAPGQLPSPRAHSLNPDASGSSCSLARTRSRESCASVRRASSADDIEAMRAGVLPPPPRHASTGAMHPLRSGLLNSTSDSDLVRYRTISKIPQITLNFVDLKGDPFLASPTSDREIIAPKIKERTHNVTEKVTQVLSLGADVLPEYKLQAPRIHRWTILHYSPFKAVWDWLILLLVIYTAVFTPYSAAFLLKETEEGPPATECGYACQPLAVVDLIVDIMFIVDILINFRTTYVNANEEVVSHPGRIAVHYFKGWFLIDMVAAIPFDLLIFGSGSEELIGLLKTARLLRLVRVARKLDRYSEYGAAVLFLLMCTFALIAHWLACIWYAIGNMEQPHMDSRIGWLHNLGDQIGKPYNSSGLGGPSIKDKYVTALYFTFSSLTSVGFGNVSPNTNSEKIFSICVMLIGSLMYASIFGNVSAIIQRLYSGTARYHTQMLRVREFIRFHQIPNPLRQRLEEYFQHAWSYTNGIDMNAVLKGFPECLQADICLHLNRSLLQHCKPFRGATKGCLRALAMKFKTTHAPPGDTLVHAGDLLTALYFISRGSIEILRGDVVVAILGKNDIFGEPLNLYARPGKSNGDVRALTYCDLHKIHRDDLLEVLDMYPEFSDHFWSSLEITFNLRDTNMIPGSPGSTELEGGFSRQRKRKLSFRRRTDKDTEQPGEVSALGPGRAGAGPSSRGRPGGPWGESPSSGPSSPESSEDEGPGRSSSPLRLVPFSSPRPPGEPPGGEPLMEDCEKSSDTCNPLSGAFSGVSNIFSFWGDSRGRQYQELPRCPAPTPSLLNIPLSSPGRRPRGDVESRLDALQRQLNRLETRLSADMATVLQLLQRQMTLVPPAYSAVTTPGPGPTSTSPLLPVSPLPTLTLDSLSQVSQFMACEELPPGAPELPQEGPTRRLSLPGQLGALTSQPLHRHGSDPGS

Compound | hERG current change (%, negative = inhibition) at 10uM [%]
CCC(C)NCCOCCOc1ccc(Br)cc1.O=C(O)C(=O)O (centres unmarked) | -18.1
COc1ccc(S(=O)(=O)N2CCCCCC2)cc1C(=O)N(C)Cc1ccc(OC)c(OC)c1OC | -41.8
CC(C)Oc1ccc(/C=N/NC(=O)c2nnn(-c3nonc3N)c2CN(C)c2ccccc2)cc1 | 5.45
Cc1cc2c3c([nH]c2cc1S(=O)(=O)N1CCC2(CC1)OCCO2)CCCC3=O | 17.2
Cc1c(Br)c(C(F)(F)F)nn1CC(=O)NCC1CCCO1 (centres unmarked) | -10.9
Cc1ccc(-c2nc3ccccc3[nH]c2=O)cc1 | 12.2
Cc1noc(C)c1S(=O)(=O)NCCCN1CCN(Cc2ccccc2)CC1 | -12.4
CC1=NN(c2nc(-c3ccccc3)cs2)C(=O)C1N=Nc1ccccc1 (centres unmarked) | 7.24
Cc1nnc(NN)n(N)c1=O | 9.23
Cc1ccc(/C=N/NC(=O)c2nnn(-c3nonc3N)c2-c2ccccc2)o1 | 11.7
COc1ccc(CNS(=O)(=O)c2ccc3c(c2)N(C)CCO3)cc1 | -11.3
CCn1c(=N)n(CC(O)COc2ccc(C)cc2)c2ccccc21.Cl (centres unmarked) | -70
CC(=O)C1=C(C)NC(=O)CC1c1ccc(F)cc1 (centres unmarked) | 22.7
COc1ccc(S(=O)(=O)NCc2cccnc2)cc1C | 17.1
CC12CCC(C(=O)[O-])(C/C1=N\O)C2(C)C.[Na+] (centres unmarked) | 18.6
O=C(Nc1ccc2ccccc2c1)c1nn(C23CC4CC(CC(C4)C2)C3)cc1Br | 7.31
O=C(C1CC(c2cccc(Br)c2)=NO1)N1CCc2ccccc2C1 (centres unmarked) | 3.06
CCOC(=O)c1ccc(NC(=O)NCc2ccn(CC)n2)cc1 | -0.463
O=c1[nH]c(=O)n(C2OC(CO)C(O)C2O)cc1Br (centres unmarked) | 26.2
Cc1cccc(NC(=S)NCCN2CCOCC2)c1C | 13.9
O=C(c1ccc([N+](=O)[O-])cc1)N1CCSC1c1ccccc1 (centres unmarked) | -39.3
O=C(COc1ccc(S(=O)(=O)N2CCCCC2)cc1)NC1CCCCC1 | 1.8

Compound | hERG current change (%, negative = inhibition) at 10uM [%]
O=C(CS(=O)CC(=O)Nc1cccnc1)Nc1ccc(F)cc1 (centres unmarked) | 30.5
c1ccc(-c2csc(NC3=NCCCCC3)n2)cc1 | -9.29
O=C(CSc1nnc(-c2cccnc2)n1Cc1ccco1)N1CCc2ccccc21 | -47.6
Cc1ccc(CSc2nnc(SCC(=O)N/N=C/c3ccccc3OCC(=O)O)s2)cc1 | -1.44
CC1(c2ccc(Cl)cc2)NC(=O)N(CC(=O)Nc2ccc(F)cc2)C1=O (centres unmarked) | -5.32
Nc1ccc2ncccc2c1 | 4.28
COc1cc2[nH]c(=S)n(Cc3ccc(C)cc3)c(=O)c2cc1OC | 12.2
CCN1C(=O)Cc2cc(S(=O)(=O)NCCc3ccccc3)ccc21 | 12.8
COc1ccc([N+](=O)[O-])c(S(=O)(=O)c2ccc(Cl)cc2)n1 | 0.869
CCOC(=O)C1(CCc2ccccc2)CCN(C(=O)CCc2cnccn2)CC1 | -66.5
O=S1(=O)CCOC[C@H](c2ccccc2)N1Cc1cccc(Cl)c1 | 5.66
O=C(CN(C(=O)c1csnn1)c1ccccc1C(F)(F)F)NCc1ccccc1 | 16.8
CCC(C)(C)NC(=O)Nc1cc(Cl)ccc1OC | 12
CC1=C(C(=O)Nc2ccc(C(=O)NC(C)c3ccccc3)cc2)SCCO1 (centres unmarked) | 11.9
COc1cc(/C=C(\C#N)c2nc3ccccc3[nH]2)cc(Br)c1OCc1ccc(F)cc1 | -1.54
COC(=O)c1ccccc1NC(=S)NC(=O)c1ccccc1 | 10.2
CCOc1ccc(N(C(=O)c2ccc(S(=O)(=O)N3CCCC3)cc2)C2C=CS(=O)(=O)C2)cc1 (centres unmarked) | -51.9
CCN(CC)S(=O)(=O)c1ccc(N2CCOCC2)c(NC(=O)c2ccccc2F)c1 | -15.8
CCOC(=O)N1CCN(CC(O)COCc2cc(OC)c(OC)c(OC)c2)CC1.Cl (centres unmarked) | 23.5
CCCn1cc(CN2CCN(Cc3ccc(C)o3)C(CCO)C2)c(C)n1 (centres unmarked) | 9.1
COC(=O)CCC(NS(=O)(=O)OCC(Cl)(Cl)Cl)c1ccccc1 (centres unmarked) | -14.3
COc1cc(/C=C/c2ccc3cccc(O)c3n2)ccc1O | -0.305

Compound | hERG current change (%, negative = inhibition) at 10uM [%]
Cc1cc(C)nc(Nc2n[nH]c(-c3ccc(C(C)(C)C)cc3)n2)n1 | 17.9
CCOC(=O)C1=C(C)N=C2SC(C(=O)OC)=CC(=O)N2C1c1cccc(OC)c1 (centres unmarked) | -3.16
Cn1c(=O)c2cc(S(=O)(=O)Nc3cc(C(=O)O)cc(C(=O)O)c3)ccc2n(C)c1=O | 21
COc1cccc(C(=O)N(c2ccccc2)C2C=CS(=O)(=O)C2)c1 (centres unmarked) | 7.58
O=C(CC(Sc1ccc(Br)cc1)C(=O)O)c1ccc(Br)cc1 (centres unmarked) | 1.74
CCCCNc1nc2sc3c(c2c(=O)n1-c1cccc(Cl)c1)CCN(C)C3 | -0.439
Cc1ccc(C(=O)N2CCCC(CCC(=O)N3CCN(c4ccccn4)CC3)C2)cn1 (centres unmarked) | -11.1
O=S(=O)(NCCNS(=O)(=O)c1ccccc1)c1ccccc1 | -4.94
Cc1sc(-c2ccccn2)nc1OC(=O)c1cccc(Cl)c1Cl | 5.12
Cc1cc([N+](=O)[O-])nn1CC(=O)N(C)C1CCCCC1 | -18.6
Cc1cc(C)n(CCOc2ccc(Cl)cc2Cl)n1 | 13.8
NCCCC[C@@H]1NC(=O)c2cc([N+](=O)[O-])cc(F)c2NCCCC[C@@H](C(N)=O)NC(=O)CNC1=O | 17.5
CCN(C(=O)CSc1nnc(CNc2cccc(OC)c2)n1C1CCCCC1)C1CCS(=O)(=O)C1 (centres unmarked) | -1.42
COc1ccc(C(CC(=O)O)NS(=O)(=O)c2ccc(C)cc2)cc1OC (centres unmarked) | 12.4
Cc1cc(C)cc(NC(=O)c2cccc(NC(=O)C3C4CC5OC(=O)C3C5C4)c2)c1 (centres unmarked) | -46.3
O=C(Nc1ncccc1O)c1ccc(S(=O)(=O)Nc2ccccc2)cc1 | 12.4
O=C(O)c1cc(/C=N\O)ccc1OCc1ccccc1 | 11.4
COc1cccc(CNC(=O)CN2C(=O)NC(Cc3ccccc3)(c3ccccc3)C2=O)c1 (centres unmarked) | -17.5
CS(=O)(=O)c1ccc(Cl)c(NC(=O)C2CCN(S(=O)(=O)c3cccs3)CC2)c1 | -29.3
CC(C)c1ccc(NC(=O)COC(=O)CCC(=O)c2cccs2)cc1 | 13.7
O=c1c2[nH]cnc2n(-c2ccccc2)c(=O)n1Cc1ccccc1 | 2.02
CCc1cccc(NC(=O)C2CCCN2S(=O)(=O)c2cccc3cccnc23)c1 (centres unmarked) | -10.4

Compound | hERG current change (%, negative = inhibition) at 10uM [%]
CCOC(=O)c1nn(-c2ccccc2)c2nc(-c3ccc(OC)cc3)c(C#N)c(=O)n12 | 11.3
COc1ccc(OC)c(-c2cc(C(=O)Nc3cc(C)on3)no2)c1 | 21.1
O=S(=O)(c1ccc(O)cc1)c1ccc(O)cc1 | 16.9
CN1C(=O)C(=O)/C(=C(/O)c2ccccc2)C1c1ccc([N+](=O)[O-])cc1 (centres unmarked) | 30.5
Cc1ccc(-c2c[n+](CC(=O)Nc3nc(-c4ccc(F)cc4)cs3)c3n2CCC3)cc1.[Cl-] | -74.2
Cn1c(=O)n(C/C=C/c2ccccc2)c(=O)c2c1nc1n2CCCN1c1ccc(F)cc1 | 9.54
COc1ccccc1C(=O)NCC(=O)OCC(=O)Nc1nnc(-c2ccccc2)o1 | 9.88
CCN(CC(=O)Nc1ccc(NC(C)=O)cc1)C(=O)C1(c2ccccc2)CC1 | 1.62
COC(=O)C1=C(c2ccc(F)cc2F)C[C@@H]2CC[C@H]1N2C(=O)NC(C)C | 9.97
Cc1ccc(S(=O)(=O)N2CCC(C(=O)N/N=C/c3ccncc3)CC2)cc1 | -36.2
COc1cccc(C2CC(C(F)(F)F)n3ncc(C(=O)NCC4CCCO4)c3N2)c1 (centres unmarked) | -11.8
O=C(CN1C(=O)C2C3C=CC(C3)C2C1=O)Nc1ccc(S(=O)(=O)Nc2nccs2)cc1 (centres unmarked) | 11.3
Cc1ccc2ncnc(Nc3cccc(C(=O)O)c3)c2c1.Cl | 8.73
COc1cccc(OC)c1C(=O)Nc1sc2c(c1C(N)=O)CCCC2 | -1.2
CCOC(=O)C1=NN(c2ccc([N+](=O)[O-])cc2)CC1C(=O)OC (centres unmarked) | -23.6
CCOC(=O)c1c(NC(=O)CN2CCCCC2)sc2c1CCC(C=O)=C2Cl | 18.5
CCOC(=O)CSC1=N/C(=C\c2cc(OC)c(OC)c(OC)c2)C(=O)N1C | -7.36
Cc1ccc(C(=O)Nc2ccc(N3CCN(C(=O)c4ccco4)CC3)cc2)c(Cl)c1 | -16
O=C(Cn1nc(-c2ccccc2)ccc1=O)NCC1CCCO1 (centres unmarked) | -9.54
COC(=O)CCC(NC(=O)OCc1ccccc1)C(=O)NC(CC(C)C)C(=O)OC (centres unmarked) (Cbz-Glu(OMe)-Leu-OMe; configuration not given here) | -3.04
